Results as given in PubChem BioAssay AID938 (National Center for Advancing Translational Sciences (NCATS), 2007).
In all, about 73,000 compounds went through this assay and about 1,800 (2.5%) were called active. Inconclusive means that the source gave no clear call. Such entries were picked first, then a sample of the others. Calls come from the whole dose curve; as a rule, active = well fitted activation curve with a large enough effect; inconclusive = small, poorly fitted or top-dose-only effect; inactive = no such curve, though single readings can be large or run the other way. No potency is given beside an inconclusive call; the fits are too rough.
Potency is the fitted concentration of half-maximal effect; tags give direction and shape of the fitted curve.

Assay: qHTS Assay for Agonists of the Thyroid Stimulating Hormone Receptor: Activators of Intracellular cAMP Concentrations in Parental HEK 293; note: nearly all actives have a fitted effect of over 55% in size; for activation: % of control where 0% means no effect
Details: parental HEK293 CNG cAMP sensor, membrane potential fluorescence; activation: at 57.1 µM (top of the series) unless noted
Summary of the method: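 Counterscreen for endogenous-receptor signalling: CNG-channel HEK 293 cells report cAMP rise by membrane depolarization. After 60 min dye equilibration with 100 uM RO 20-1724, compounds incubated 30 min before bottom-read fluorescence at 590 nm.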
With `O=C(Nc1ccc(Cl)cc1)N1CCC(c2nc(-c3cccs3)no2)CC1` the Potency was inconclusive [activator, partial curve].
In the case of `CCNc1ncc2ncc(=O)n(Cc3ccc(F)cc3)c2n1`, the Potency is reported as inconclusive [activator, partial curve].
In the case of `COCCNC(=O)c1cc2c(=O)n3cccc(C)c3nc2n(Cc2ccncc2)c1=N`, the Potency is reported as “inactive”.
For `CCc1ccccc1NC(=O)C(CC)Sc1nc2cc3c(cc2c(=O)n1Cc1ccco1)OCO3` (configuration not stated), the Potency was inconclusive [activator, partial curve].
With `CC1CCN(c2ccc(C(=O)O)cc2)CC1` the Potency was “inactive”.
With `O=C1NCC2(CCN(CCc3ccccc3)CC2)O1` the Potency was inconclusive [activator, single point].
For `CSc1ncc(Cl)c(C(=O)C(C#N)c2nc3c(C)cc(C)cc3c(=O)[nH]2)n1` (configuration not stated), the Potency was inconclusive [activator, single point].
In the case of `O=C(Nc1cccc(F)c1)N1CC[C@@]2(CCCN(C(=O)c3ccco3)C2)C1`, the Potency is reported as inconclusive [activator, partial curve, poor fit].
In the case of `CN(C)c1ccc(NC(=O)c2cc3c(=O)n4ccccc4nc3n2C)cc1`, the Potency is reported as “inactive”.
For `COc1cc(/C=C\c2ccc(OC)cc2OC)cc(OC)c1`, the Potency was inconclusive [activator, full curve].
In the case of `O=C(CSc1nc2ccccc2n1CC(=O)N1CCCC1)NCc1ccc2c(c1)OCO2`, the Potency is reported as “inactive”.
For `CCn1c2ccccc2c2cc(NC(=O)C3CCN(S(=O)(=O)c4cccs4)CC3)ccc21`, the Potency was “inactive”.
In the case of `Cc1noc(C)c1-c1ccc2ncnc(NCc3cccs3)c2c1`, the Potency is reported as inconclusive [activator, single point].
In the case of `CCOc1ccccc1N1CCN(S(=O)(=O)c2cccs2)CC1`, the Potency is reported as active: 10 µM.
For `Cc1cc(N2CCN(C/C=C/c3ccccc3)CC2)n2ncnc2n1`, the Potency was inconclusive [activator, partial curve].
For `CN(C)S(=O)(=O)c1cccc(C(=O)N(Cc2ccc(F)cc2)Cc2ccco2)c1`, the Potency was inconclusive [activator, partial curve].
With `COc1cccc(-n2nnc3c(=O)n(Cc4ccc(Br)cc4)cnc32)c1` the Potency was inconclusive [activator, partial curve].
For `Cc1noc(C)c1COC(=O)c1ccccc1NC(=O)Cc1ccccc1`, the Potency was inconclusive [activator, partial curve].
In the case of `CNc1nc(-c2ccc(C(=O)N(C)C)cc2)nc2ccccc12`, the Potency is reported as “inactive”.
For `CN(C)c1nc(SCC#N)nc(N(C)C)n1`, the Potency was “inactive”.
For `COc1ccc(Cn2c(C3CC3)nc3ccc(NC(=O)c4ccco4)cc3c2=O)cc1`, the Potency was “inactive”.
For `COc1ccc(OC)c(C2=Nn3c(nnc3-c3cccc(OC(C)C)c3)SC2)c1`, the Potency was active: 25.1 µM.
In the case of `Cc1cc(SCC#N)n2nc(C)c(-c3ccccc3)c2n1`, the Potency is reported as “inactive”.
For `COc1ccccc1N1CCN(C(c2ccc(F)cc2)c2nnnn2C(C)C)CC1` (configuration not stated), the Potency was inconclusive [activator, full curve].
In the case of `CCCCn1c(S(=O)(=O)O)nc2ccccc21`, the Potency is reported as inconclusive [activator, single point].
For `Cc1ccc(C)c(-n2nnnc2SCC(=O)Nc2cccc(-c3nnc4n3CCCCC4)c2)c1`, the Potency was inconclusive [activator, single point].
With `Cc1ccc(N2C(=O)[C@@H]3[C@H](C2=O)C2c4ccccc4C=CN2[C@@H]3C(=O)c2ccco2)c(C)c1` (some centres not stated) the Potency was “inactive”.
In the case of `COc1ccccc1CNC(=O)CS(=O)Cc1nc(-c2ccccc2C)oc1C` (configuration not stated), the Potency is reported as inconclusive [activator, partial curve].
For `CC(=O)c1c(C(C)=O)c(C)n(NC(=O)c2cccnc2)c1C`, the Potency was active: 3.98 µM.
For `Cc1cccc(OCCSc2cc(C)nc(N)n2)c1`, the Potency was active: 31.6 µM.
In the case of `Cc1c(CN(C)C)c2c(n1C)C(=O)c1ccc(Br)cc1-2`, the Potency is reported as “inactive”.
With `COCCn1c(SCC(=O)N2CCCc3ccccc32)nnc1-c1ccco1` the Potency was “inactive”.
In the case of `Cc1noc(C)c1COC(=O)c1cccnc1SCC(=O)Nc1ccc2c(c1)OCO2`, the Potency is reported as inconclusive [activator, single point].
For `CC(C)C(OC(=O)c1cc2sccc2n1C)C(=O)NCC1CCCO1` (configuration not stated), the Potency was active: 2 µM.
In the case of `CCn1c(COc2ccccc2)nnc1SCC(=O)NC1CCCCC1`, the Potency is reported as inconclusive [activator, single point].
With `COC(=O)Cn1nnc(-c2cccc(OC)c2)n1` the Potency was inconclusive [activator, single point].
In the case of `Cc1ccc(O)c(-c2cc3ccccc3[nH]2)c1`, the activation is reported as inactive: -14.9% [at 11.4 µM].
For `Cc1c(Cl)cccc1N(CC(=O)NC1CCCCC1)S(C)(=O)=O`, the Potency was inconclusive [activator, single point].
For `CCN(CC)CCCN1C(=O)C(O)=C(C(=O)c2ccc(C)o2)C1c1ccco1` (configuration not stated), the Potency was inconclusive [activator, single point].
In the case of `CCNc1ncc2nc(-c3ccc(F)cc3)c(=O)n(-c3ccccc3)c2n1`, the Potency is reported as inconclusive [activator, full curve].
With `Cc1cc(C)c(NC(=O)Cn2c(=O)n(Cc3ccco3)c(=O)c3ccccc32)c(C)c1` the Potency was inconclusive [activator, partial curve].
With `O=C(O)CCCC(=O)Nc1nc2n(n1)C(c1ccc(F)cc1)CC(c1ccc(Cl)cc1)N2` (configuration not stated) the Potency was inconclusive [activator, single point].
In the case of `O=C(CN1C(=O)c2ccccc2C1=O)Nc1ccc(S(=O)(=O)NCC2CCCO2)cc1` (configuration not stated), the Potency is reported as “inactive”.
In the case of `CCn1c(SCC(=O)N2CCCC2)nc2ccccc2c1=O`, the Potency is reported as inconclusive [activator, partial curve].
In the case of `O=C(NCc1ccc2c(c1)OCO2)c1ccc(CS(=O)(=O)c2cccc(C(F)(F)F)c2)o1`, the Potency is reported as inconclusive [activator, single point].
In the case of `Cc1cc(C(=O)CSc2nc3ccccc3c(=O)n2C)c(C)n1Cc1ccc2c(c1)OCO2`, the Potency is reported as inconclusive [activator, partial curve].
In the case of `Fc1ccc(-c2nnc(CSc3nnc(-c4ccc5c(c4)OCO5)o3)o2)cc1`, the Potency is reported as active: 25.1 µM.
With `Cc1ccccc1-c1ccc2ncnc(N(C)C)c2c1` the Potency was inconclusive [activator, partial curve].
In the case of `COC(=O)N1CCC2(CCN(Cc3nccs3)CC2)CC1`, the Potency is reported as “inactive”.
In the case of `CCOC(=O)C1=C(C)Nc2nc(C)nn2C1c1ccc(OC)c(OC)c1` (configuration not stated), the Potency is reported as active: 1.58 µM.
For `Cc1ccccc1-n1nnnc1SCc1csc(-c2ccccc2)n1`, the Potency was active: 3.16 µM.
In the case of `Cc1noc(NS(=O)(=O)c2cccc3c(N(C)C)cccc23)c1C`, the Potency is reported as inconclusive [activator, full curve, poor fit].
In the case of `NC(=O)c1ccccc1N/C=C/C(=O)c1ccccc1`, the Potency is reported as “inactive”.
For `CCN(CC)S(=O)(=O)c1ccc2c(c1)c(=O)c(C(=O)NCCN(C)CCc1ccccc1)cn2C`, the Potency was inconclusive [activator, partial curve].
For `CCCCC[C@H](O)c1cccc(OCc2ccc3ccccc3n2)c1`, the Potency was active: 20 µM.
For `Cc1cc(O)c(C(C)C)cc1CN1CCCCC1`, the activation was inactive: 5.5% [at 11.4 µM].
With `Cc1cc(=O)[nH]c(SCc2cc(Cl)ccc2OC(F)F)n1` the Potency was inconclusive [activator, full curve, poor fit].
In the case of `Fc1ccc(Nc2ccnc(-c3ccc4c(c3)OCO4)n2)cc1`, the Potency is reported as “inactive”.
In the case of `O=C(NCc1ccncc1)c1cccc(Cn2cc(Br)cn2)c1`, the Potency is reported as inconclusive [activator, single point].
In the case of `Cc1ccc(-c2nc(NC(=O)CSc3nnc(C)s3)ns2)cc1`, the Potency is reported as inconclusive [activator, single point].
In the case of `COc1ccc(CN(C(=O)CSc2nnc(-c3ccccc3F)o2)c2ccc(F)cc2)cc1`, the Potency is reported as inconclusive [activator, partial curve].
For `NC1(C(=O)O)CC1`, the Potency was inconclusive [activator, single point].
For `Cn1c(=O)c2c(nc(NCCc3ccccc3)n2Cc2ccc(F)cc2)n(C)c1=O`, the Potency was “inactive”.
With `CCN1CCN(c2oc(COc3ccc(-c4ccccc4)cc3)nc2C#N)CC1` the Potency was inconclusive [activator, partial curve].
In the case of `CCC(c1nnnn1Cc1ccco1)N(CCN1CCOCC1)Cc1cc2cc(C)ccc2[nH]c1=O` (configuration not stated), the Potency is reported as inconclusive [activator, partial curve].
In the case of `COc1ccc(Cl)cc1N(C)C(=O)CCc1nc(-c2ccc(C)cc2)no1`, the Potency is reported as inconclusive [activator, single point].
For `O=C(CSc1nc(-c2ccccc2)c(-c2ccccc2)o1)N1CCOCC1`, the Potency was inconclusive [activator, full curve].
For `CN(c1ccccc1)C(c1ccc(F)cc1)c1nnnn1CC1CCCO1` (configuration not stated), the Potency was inconclusive [activator, partial curve].
For `CCC(=O)N1c2ccccc2NC2=C(C(=O)CCC2)C1c1cccnc1` (configuration not stated), the Potency was inconclusive [activator, partial curve].
With `COc1cc([C@@H]2c3cc4c(cc3[C@@H](O[C@@H]3O[C@H]5CO[C@@H](C)O[C@@H]5[C@@H](O)[C@H]3O)[C@@H]3COC(=O)[C@@H]23)OCO4)cc(OC)c1O` the Potency was “inactive”.
For `CCN(CC)S(=O)(=O)c1ccc(NC(=O)Cn2c(=O)oc3ccccc32)cc1`, the Potency was “inactive”.
In the case of `C=CCn1c(SCc2ccc(C#N)cc2)nnc1-c1cccc(OC)c1`, the Potency is reported as active: 3.16 µM.
